In patent US20230338565A1 (SICHUAN KELUN BIOTECH BIOPHARMACEUTICAL, published 2023):

Tests used:
human Claudin18.2 [1] = biological target: T1, human Claudin18.2 (human, UniProt P56856-2 1-261); test: cell-based or functional assay
human Claudin18.2 [2] = biological target: T1, human Claudin18.2; test: cell ELISA on formaldehyde-fixed L929-Claudin 18.2 cells, HRP anti-human IgG

| Binder | EC50 of killing NUGC-4 cells (CCK8) (human Claudin18.2 [1]) | EC50 (human Claudin18.2 [2]) |
| --- | --- | --- |
| 2C6.9-TL001 (DAR: 7.12) (other, TL001 linker-toxin on antibody sulfhydryl groups (thioether bond), 0 to 1 per light chain; overall DAR 7.12; TL001 linker-toxin on antibody sulfhydryl groups (thioether bond), 0 to 4 per heavy chain; overall DAR 7.12, also called 2C6.9-ADC) heavy: QVQLQESGPGLVKPSETLSLTCTVSGFSLTRYGVSWIRQPPGKGLEWIGVIWGEGNTNYNPSLKSRVTISKDSSKSQVSLKLSSVTAADTAVYYCARVNFGNALDYWGQGTLVTVSS[human IgG1 constant region not spelt out] light: DIVMTQSPDSLAVSLGERATINCKSSQSLLNSGNQKNYLTWYQQKPGQPPKLLIYWASTRDSGVPDRFSGSGSGTDFTLTISSLQAEDVAVYYCQNDFIFPLTFGGGTKVEIKRTVAAPSVFIFPPSDEQLKSGTASVVCLLNNFYPREAKVQWKVDNALQSGNSQESVTEQDSKDSTYSLSSTLTLSKADYEKHKVYACEVTHQGLSSPVTKSFNRGEC | 2.38 µg/mL | 0.0399 µg/mL |
| 2C6.9-TL003 (other, TL003 linker-toxin on antibody sulfhydryl groups (thioether bond); overall DAR 7.03) heavy: QVQLQESGPGLVKPSETLSLTCTVSGFSLTRYGVSWIRQPPGKGLEWIGVIWGEGNTNYNPSLKSRVTISKDSSKSQVSLKLSSVTAADTAVYYCARVNFGNALDYWGQGTLVTVSS[human IgG1 constant region not spelt out] light: DIVMTQSPDSLAVSLGERATINCKSSQSLLNSGNQKNYLTWYQQKPGQPPKLLIYWASTRDSGVPDRFSGSGSGTDFTLTISSLQAEDVAVYYCQNDFIFPLTFGGGTKVEIKRTVAAPSVFIFPPSDEQLKSGTASVVCLLNNFYPREAKVQWKVDNALQSGNSQESVTEQDSKDSTYSLSSTLTLSKADYEKHKVYACEVTHQGLSSPVTKSFNRGEC | 124 µg/mL |  |
| 2C6.9-TL001 (DAR: 3.79) (other, TL001 linker-toxin on antibody sulfhydryl groups (thioether bond), 0 to 1 per light chain; overall DAR 3.79; TL001 linker-toxin on antibody sulfhydryl groups (thioether bond), 0 to 4 per heavy chain; overall DAR 3.79) heavy: QVQLQESGPGLVKPSETLSLTCTVSGFSLTRYGVSWIRQPPGKGLEWIGVIWGEGNTNYNPSLKSRVTISKDSSKSQVSLKLSSVTAADTAVYYCARVNFGNALDYWGQGTLVTVSS[human IgG1 constant region not spelt out] light: DIVMTQSPDSLAVSLGERATINCKSSQSLLNSGNQKNYLTWYQQKPGQPPKLLIYWASTRDSGVPDRFSGSGSGTDFTLTISSLQAEDVAVYYCQNDFIFPLTFGGGTKVEIKRTVAAPSVFIFPPSDEQLKSGTASVVCLLNNFYPREAKVQWKVDNALQSGNSQESVTEQDSKDSTYSLSSTLTLSKADYEKHKVYACEVTHQGLSSPVTKSFNRGEC | 10 µg/mL |  |
| 2C6.9-TL002 (other, TL002 linker-toxin on antibody sulfhydryl groups (thioether bond); overall DAR 6.95) heavy: QVQLQESGPGLVKPSETLSLTCTVSGFSLTRYGVSWIRQPPGKGLEWIGVIWGEGNTNYNPSLKSRVTISKDSSKSQVSLKLSSVTAADTAVYYCARVNFGNALDYWGQGTLVTVSS[human IgG1 constant region not spelt out] light: DIVMTQSPDSLAVSLGERATINCKSSQSLLNSGNQKNYLTWYQQKPGQPPKLLIYWASTRDSGVPDRFSGSGSGTDFTLTISSLQAEDVAVYYCQNDFIFPLTFGGGTKVEIKRTVAAPSVFIFPPSDEQLKSGTASVVCLLNNFYPREAKVQWKVDNALQSGNSQESVTEQDSKDSTYSLSSTLTLSKADYEKHKVYACEVTHQGLSSPVTKSFNRGEC | 54.9 µg/mL |  |
